Test results taken from publication PMC4336329 (PLoS ONE, 2015).
Hit rate of the full screen: of about 310,000 compounds, about 14,000 (4.5%) showed an effect of 50% or more. Effects have a minus sign here. The list shows a part of the results.

target: human ether-à-go-go-related gene (hERG) potassium channel (human, UniProt Q12809); assay: primary screen, population patch clamp on CHO cells stably expressing hERG
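Further: peak tail current of the secondary pulse compared with the same well before compound.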

Sequence of human ether-à-go-go-related gene (hERG) potassium channel (Q12809 whole entry, looked up): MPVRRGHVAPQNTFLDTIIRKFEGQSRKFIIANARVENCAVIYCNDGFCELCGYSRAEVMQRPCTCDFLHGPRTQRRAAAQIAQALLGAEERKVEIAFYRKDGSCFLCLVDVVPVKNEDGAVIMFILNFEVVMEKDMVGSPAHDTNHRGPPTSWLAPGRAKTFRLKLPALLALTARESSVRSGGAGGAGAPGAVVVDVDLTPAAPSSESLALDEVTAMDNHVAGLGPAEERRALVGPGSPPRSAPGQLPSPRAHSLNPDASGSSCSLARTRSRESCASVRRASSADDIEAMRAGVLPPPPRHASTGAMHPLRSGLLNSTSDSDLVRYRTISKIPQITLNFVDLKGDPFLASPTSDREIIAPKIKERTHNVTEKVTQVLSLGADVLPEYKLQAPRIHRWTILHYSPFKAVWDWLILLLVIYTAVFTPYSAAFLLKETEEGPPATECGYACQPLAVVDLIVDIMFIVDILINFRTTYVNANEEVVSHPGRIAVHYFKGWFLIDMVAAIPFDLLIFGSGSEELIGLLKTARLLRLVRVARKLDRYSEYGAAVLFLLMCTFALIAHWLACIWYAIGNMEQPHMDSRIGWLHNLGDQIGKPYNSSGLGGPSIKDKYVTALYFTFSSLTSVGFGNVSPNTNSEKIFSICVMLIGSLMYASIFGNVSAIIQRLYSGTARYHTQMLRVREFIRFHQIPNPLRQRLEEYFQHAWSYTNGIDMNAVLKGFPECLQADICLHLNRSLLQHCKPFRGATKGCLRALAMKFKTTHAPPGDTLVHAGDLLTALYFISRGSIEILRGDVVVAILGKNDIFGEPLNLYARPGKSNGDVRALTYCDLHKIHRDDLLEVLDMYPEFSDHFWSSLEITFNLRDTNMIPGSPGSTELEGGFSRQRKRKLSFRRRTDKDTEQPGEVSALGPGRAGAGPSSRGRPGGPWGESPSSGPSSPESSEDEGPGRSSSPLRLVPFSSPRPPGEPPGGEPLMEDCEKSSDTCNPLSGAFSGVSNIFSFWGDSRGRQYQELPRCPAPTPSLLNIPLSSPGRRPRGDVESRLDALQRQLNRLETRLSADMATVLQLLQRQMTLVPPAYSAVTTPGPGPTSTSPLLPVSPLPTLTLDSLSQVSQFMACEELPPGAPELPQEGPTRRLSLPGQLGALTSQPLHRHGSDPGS

SMILES	hERG current change (%, negative = inhibition) at 10uM [%]
COc1ccc(C2N(C(=O)c3ccccc3)CCN2C(=O)c2ccc(C)cc2)cc1 (stereo not shown)	-24.9
O=C(CCNC(=O)c1ccc([N+](=O)[O-])cc1)Nc1cc(Cl)ccc1N1CCOCC1	-69.9
O=C(Cn1cc2c(n1)CCCC2)NC1CCCCCC1	2.68
CN(CC(O)COCc1cccs1)C1CCCCC1 (stereo not shown)	-12.1
N/C(=N\OC(=O)c1ccc(Cl)c([N+](=O)[O-])c1)c1ccccn1	7.22
O=C(Cn1nc(-c2ccccc2)ccc1=O)N1CCOCC1	-6.25
N/C(=N\OC(=O)/C=C/c1ccc(Br)cc1)c1ccccn1	-6.37
COC(=O)c1cc(S(=O)(=O)N2CCCC2)c(Cl)cc1Cl	-9.9
COC(=O)CNc1nc(Cl)nc(Nc2ccc(Cl)cc2)n1	10.7
COc1ccc(OC)c(-n2c(=S)[nH]c3cc(C(=O)N(C)Cc4ccccc4)ccc3c2=O)c1	2.8
O=C(NCCc1ccccc1)C1CCC(=O)N1CCc1ccccc1 (stereo not shown)	8.78
Cc1occc1C(=O)N/N=C/c1cccc2ccccc12	6.66
O=C(CCC(=O)N1CCSc2ccccc21)NCc1ccccc1	-0.536
COCCNC(=O)CN1CCN(S(=O)(=O)c2ccc3c(c2)CCCC3)CC1	-7.28
CCN=C1SC(C(=O)Nc2cccc(C(=O)O)c2)CC(=O)N1CC (stereo not shown)	9.61
Cc1cc(NC(=O)CSCc2ccccc2)no1	13.4
COc1cc(OC)cc(C(=O)N2CCC(C(=O)c3ccc(F)cc3)CC2)c1	-30.8
CCOC(=O)C(=O)NNc1ccc(Cl)cc1	25.7
CN(C)S(=O)(=O)c1ccc(C(=O)Nc2ccc3c(c2)CCC3)cc1	-52
CC(C)(C)c1csc(NC(=O)CSC2=NCCS2)n1	-6.03
CCOC(=O)/C(C#N)=C/Nc1ccsc1C(C)=O	4.06
Cc1ccc(COC(=O)CCN=C2NS(=O)(=O)c3ccccc32)cc1	-15.7

SMILES	hERG current change (%, negative = inhibition) at 10uM [%]
CC(=O)Nc1ccc(NC(=O)CSc2cn(CC(=O)N3CCOCC3)c3ccccc23)cc1	23.3
COc1ccc(CN(C)CC(=O)Nc2cc(OC)c([N+](=O)[O-])cc2C)c(OC)c1	-48.6
COc1ccc2cc([C@H](C)C(=O)N(C)Cc3ccccc3N3CCCC3)ccc2c1	16.5
COc1ccc(NC(=O)c2sc3nc(N4CCOCC4)c4c(c3c2N)CCCC4)c(OC)c1	14
O=C(Nc1cccc(F)c1)c1c(O)c2ccccc2[nH]c1=O	21.3
CC1CCc2c(sc(NC(=O)COC(=O)c3ccc(O)cc3)c2C#N)C1 (stereo not shown)	15.3
COc1cc(C)c(Cl)cc1S(=O)(=O)n1cnc2ccccc21	-8.11
CC(C)OCCCNc1nc2c(-c3ccccc3)nnn2c2ccccc12	20.2
O=c1[nH]c(CN2CCN(Cc3ccc4c(c3)OCO4)CC2)nc2ccccc12	-58.9
COc1ccc(CCNC(=O)/C(C#N)=C2\N=C(NC(=O)c3cccs3)c3ccccc32)cc1	-18.5
Cc1ccccc1C(=O)NNC(=O)C1CC(=O)N(Cc2ccccc2)C1 (stereo not shown)	2.19
CSc1ncccc1C(=O)Nc1ccc(OC(F)(F)F)cc1	11.5
C=CCSc1nc(N)cc(=O)[nH]1	0.914
CC(=O)Nc1ccc(S(=O)(=O)Nc2cc(C)cn(Cc3ccccc3)c2=O)cc1	6.4
CCOC(=O)C1(Cc2cccc(OC)c2)CCCN(Cc2cc(C(C)C)n[nH]2)C1 (stereo not shown)	-13.8
CCOC(=O)C1CCCN(C(=O)c2cc(-c3ccc(F)cc3)nc3ccccc23)C1 (stereo not shown)	-33.8
COc1ccccc1C(=O)NNC(=O)C(=O)Nc1ccc(C)c(Cl)c1	4.41
O=[N+]([O-])c1cc(F)c(N2CCCCCC2)cc1N1CCNCC1	-33.5
CC(C(=O)N(C)C1CCS(=O)(=O)C1)N1C(=O)/C(=C/c2ccc(F)cc2)SC1=S (stereo not shown)	-35.7
CS(=O)(=O)c1ccc(Cl)c(NC(=O)COC(=O)CNC(=O)c2ccccc2)c1	-2.97
O=C(O)c1oc2ccccc2c1CSc1ccccn1	3.38
